# Measured values from PubChem BioAssay AID504332 (National Center for Advancing Translational Sciences (NCATS), 2011).
# Out of some 350,000 compounds screened, about 31,000 (8.9%) were called active. The shares of active, inactive and inconclusive entries below differ from those in the screen. Calls come from the whole dose curve; as a rule, active = well fitted inhibition curve with a large enough effect; inconclusive = small, poorly fitted or top-dose-only effect; inactive = no such curve, though single readings can be large or run the other way. A potency beside an inconclusive call is a rough fit, not a confirmed value. Some structures have more than one record in an assay (separate samples or runs), and their calls can disagree.
# Biological target: Histone-lysine N-methyltransferase EHMT2 (Homo sapiens) (UniProt Q96KQ7)
# Chain of UniProt Q96KQ7 (Q96KQ7 whole entry, looked up): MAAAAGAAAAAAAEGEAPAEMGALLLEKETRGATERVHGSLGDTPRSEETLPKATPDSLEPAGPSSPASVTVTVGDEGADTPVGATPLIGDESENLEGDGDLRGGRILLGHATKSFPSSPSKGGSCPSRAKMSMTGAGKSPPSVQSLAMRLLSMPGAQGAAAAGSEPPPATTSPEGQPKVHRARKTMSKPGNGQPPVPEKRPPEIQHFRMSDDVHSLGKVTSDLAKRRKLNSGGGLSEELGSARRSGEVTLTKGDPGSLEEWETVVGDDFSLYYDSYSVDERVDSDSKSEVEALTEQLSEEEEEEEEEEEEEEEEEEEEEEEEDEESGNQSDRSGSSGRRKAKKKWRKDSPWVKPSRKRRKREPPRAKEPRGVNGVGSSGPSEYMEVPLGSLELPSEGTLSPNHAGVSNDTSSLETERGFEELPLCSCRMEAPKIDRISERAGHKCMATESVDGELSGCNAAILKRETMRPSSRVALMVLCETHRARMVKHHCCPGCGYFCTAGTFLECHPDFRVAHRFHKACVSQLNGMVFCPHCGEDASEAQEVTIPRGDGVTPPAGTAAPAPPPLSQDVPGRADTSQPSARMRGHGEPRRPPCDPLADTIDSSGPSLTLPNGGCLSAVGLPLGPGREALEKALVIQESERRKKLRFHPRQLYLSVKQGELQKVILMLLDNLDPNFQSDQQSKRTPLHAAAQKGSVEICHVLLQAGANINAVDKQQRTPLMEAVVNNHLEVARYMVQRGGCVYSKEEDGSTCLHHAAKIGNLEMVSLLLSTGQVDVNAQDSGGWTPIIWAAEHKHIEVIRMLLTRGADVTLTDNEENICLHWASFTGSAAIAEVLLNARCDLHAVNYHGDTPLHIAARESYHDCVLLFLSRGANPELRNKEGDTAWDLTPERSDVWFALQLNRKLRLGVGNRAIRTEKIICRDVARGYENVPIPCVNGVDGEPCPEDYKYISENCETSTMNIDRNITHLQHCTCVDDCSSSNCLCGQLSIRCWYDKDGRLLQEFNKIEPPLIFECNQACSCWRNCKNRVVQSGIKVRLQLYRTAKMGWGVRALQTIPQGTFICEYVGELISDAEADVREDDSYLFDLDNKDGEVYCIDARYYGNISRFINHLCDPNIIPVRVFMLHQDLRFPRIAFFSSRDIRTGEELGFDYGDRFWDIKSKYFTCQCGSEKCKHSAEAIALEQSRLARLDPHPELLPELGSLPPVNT
# Experiment: qHTS Assay for Inhibitors of Histone Lysine Methyltransferase G9a; note: nearly all actives have a fitted effect of over 75% in size
# Settings: G9a H3K9 monomethylation, AlphaScreen, 2 h; activity, negative = inhibition: at 59 µM (top of the series) unless noted
# Method in brief: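 AlphaScreen read-out: biotin-H3K9 peptide (500 nM) methylation by 20 nM enzyme with 20 uM SAM, 2 h at room temperature after 15 min compound preincubation; anti-monomethyl H3K9 antibody plus donor/acceptor beads, 10 min dark.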
# % is set by controls: 0 for no effect and ±100 for the full control effect; potency is the fitted concentration of half-maximal effect; tags give direction and shape of the fitted curve.
SMILES,Potency,"activity, negative = inhibition"
CNC(=O)c1c(NC(=O)c2ccc(S(=O)(=O)N3CC(C)OC(C)C3)cc2)sc2c1CCN(C(C)C)C2 (stereo not given),"inconclusive: 10 µM [inhibitor, partial curve, poor fit]",
CN(C)c1ccc(-n2cc3c(=O)n(C)c(=O)n(C)c3c2)cc1,active: 44.7 µM,
COc1cccc(CNC(=O)C(=O)NCCC2CCCCN2S(=O)(=O)c2ccc(C)cc2)c1 (stereo not given),,inactive: 0.971% [at 0.501 µM]
Cc1ccc(S(=O)(=O)NCC(=O)N2CCOCC2)cc1,"inconclusive: 10 µM [inhibitor, partial curve, poor fit]",
O=C1OC2(c3ccc(O)cc3Oc3cc(O)ccc32)c2ccccc21,"inconclusive: 10 µM [inhibitor, partial curve, poor fit]",
Cc1cc(N2CCN(C)CC2)nc2ccc(NC(=S)N3CCOCC3)cc12,"inconclusive: 44.7 µM [inhibitor, partial curve]",
COc1cc(CCN2C(=O)c3cccc4cccc(c34)C2=O)c(S(=O)(=O)N2CCC(C)CC2)cc1OC,,inactive: -0.262% [at 102 µM]
O=C(Nc1nnc(SCc2ccccn2)s1)C1CC(=O)N(c2ccccc2)C1 (stereo not given),"inconclusive: 25.1 µM [inhibitor, single point]",
CC(C)CCOP(=O)(c1ccc(N(C)C)cc1)C(O)c1ccccc1F (stereo not given),"inconclusive: 2 µM [inhibitor, full curve, poor fit]",
CCC(O)CNc1nc(-n2nc(C)cc2C)nc2sc3c(c12)CCCC3 (stereo not given),,inactive: 3.16%
COc1ccc(C(=O)CSc2nc(C)cc(C)c2C(=O)Nc2ccccc2C)cc1,"inconclusive: 7.08 µM [inhibitor, full curve]",
COc1ccc(N(CC(=O)Nc2ccc3c(c2)OCO3)S(=O)(=O)c2ccccc2)cc1OC,"inconclusive: 79.4 µM [inhibitor, partial curve, poor fit]",
Cc1c(C(=O)Nc2ccc(F)cc2)cn2c(nc3ccccc32)c1C#N,,inactive: -0.771%
COC(=O)c1ccc(NC(=O)CC2C(=O)N(c3cccc(OC)c3)C(=O)N2Cc2ccco2)cc1 (stereo not given),"inconclusive: 3.98 µM [inhibitor, partial curve, poor fit]",
CCOC(=O)N1CCN(C(=O)/C(=C/c2ccc(F)cc2)NC(=O)c2ccccc2)CC1,,inactive: 0.308% [at 102 µM]
COc1cc(/C=C/C(=O)OCC(=O)NCc2cccs2)ccc1OCC#N,"inconclusive: 5.01 µM [inhibitor, full curve, poor fit]",
COc1ccc(NC(=O)c2cccc(N3CCCS3(=O)=O)c2)cc1OC,,inactive: -4.34%
COC(=O)c1ccc(N2NC(=O)/C(=C/c3ccc(OC)c(OC)c3)C2=O)cc1,"inconclusive: 79.4 µM [inhibitor, single point]",
Cc1ccc(NC(=O)CCOc2ccccc2)cc1,inactive,
CCc1c(C)nc2nc(NC(C)=O)[nH]n2c1=O,"inconclusive: 20 µM [inhibitor, single point]",
c1cc(C(c2nnnn2C2CCCC2)N2CCOCC2)ccn1 (stereo not given),,inactive: -39.8% [at 12.7 µM]
CC(=O)OCC1=C(C(=O)O)N2C(=O)[C@@H](NC(=O)CSc3ccncc3)[C@H]2SC1,active: 15.8 µM,
COc1ccccc1CNC(=O)c1ccc(CS(=O)(=O)c2c(Cl)cccc2Cl)o1,,inactive: 0.888%

SMILES,Potency,"activity, negative = inhibition"
COc1cccc(-c2nc(S(=O)(=O)c3ccccc3)c(N3CCCCC3)o2)c1,"inconclusive: 17.8 µM [inhibitor, partial curve, poor fit]",
CCOC(=O)Nc1ccc2c(CN3C(=O)NC(CC)(CC)C3=O)cc(=O)oc2c1,,inactive: -0.224% [at 102 µM]
COCCNC(=O)c1ccc2c(=O)n(CCc3ccccc3)c(SCC(=O)CC(=O)OC)nc2c1,,inactive: 0.604%
CCn1c(C(C)NC(=O)c2cccs2)n[nH]c1=S (stereo not given),active: 12.6 µM,
COc1ccc(-c2csc3ncnc(N4CCN(S(=O)(=O)c5ccc(C)cc5)CC4)c23)cc1,"inconclusive: 89.1 µM [inhibitor, partial curve, poor fit]",
NC(=O)c1ccccc1NC(=O)CC1(CC(=O)O)CCCC1,"inconclusive: 100 µM [inhibitor, single point]",
COc1ccc(NC2(c3ccc(Cl)cc3)C(=O)c3ccccc3C2=O)cc1,active: 28.2 µM,
CCOC(=O)c1ccc(N2C(=O)c3[nH]nc(-c4ccc(C)cc4)c3C2c2ccc(O)c(OCC)c2)cc1 (stereo not given),,inactive: -29.2%
Cc1ccc(C2C(C#N)=C(N)Oc3n[nH]c(-c4cccnc4)c32)o1 (stereo not given),active: 79.4 µM,
Clc1ccc(OCCN2CCCCC2)cc1Cl,"inconclusive: 3.98 µM [inhibitor, full curve, poor fit]",
Cc1ccccc1OCCCCn1c(-c2ccc(Cl)cc2)nc2ccccc2c1=O,,inactive: 20.6%
COc1cc(OC)c(C(=O)OCC(=O)c2cc(C)n(CC3CCCO3)c2C)cc1OC (stereo not given),"inconclusive: 89.1 µM [inhibitor, partial curve, poor fit]",
CCOC(=O)c1c(C)[nH]c(C)c1S(=O)(=O)N(C)CC(=O)Nc1cc(Cl)ccc1C,,inactive: -8.22%
CN1CCN(CCCNC(=O)Nc2cccc3ccccc23)CC1,"inconclusive: 56.2 µM [inhibitor, partial curve, poor fit]",
Cc1ccc2sc(N(CCN(C)C)C(=O)c3ccc(S(=O)(=O)N4CC(C)OC(C)C4)cc3)nc2c1C (stereo not given),active: 50.1 µM,
CCc1ccc(CNC(=O)c2c3c(nc4ccccc24)C(=O)N(C2CCCCC2)C3)cc1,,inactive: -2.8%
Cc1ccccc1NC(=S)N1CCN(c2ccccc2Cl)CC1,"inconclusive: 50.1 µM [inhibitor, partial curve, poor fit]",
CC1CC1C(=O)OCC(=O)Nc1ccc(N=Nc2ccccc2)cc1 (stereo not given),active: 35.5 µM,
COc1ccc(C2/C(=C(/O)c3ccc4c(c3)CC(C)O4)C(=O)C(=O)N2CCCn2ccnc2)cc1 (stereo not given),"inconclusive: 79.4 µM [inhibitor, single point]",
O=[N+]([O-])c1ccccc1CN1CCN(Cc2c[nH]c3ccccc23)CC1,active: 31.6 µM,
Cc1ccc(-n2c(=S)[nH]c3sc4c(c3c2=O)CCc2ccccc2-4)cc1,,inactive: 5.39% [at 102 µM]
Cc1nc2cc(NC(=O)Nc3cccc4ccccc34)ccc2n1C,"inconclusive: 50.1 µM [inhibitor, partial curve]",
